Laboratory results reported in the supplement of paper PMC4723716.
± gives the uncertainty stated by the source. Over roughly 9,900 compounds, “viability index relative to DMSO control” has its median near 1; the lowest 2% begin near 0.85. Some of the results follow.

Each compound was assayed on Plasmodium falciparum NF54 stage V gametocytes (assay: viability index relative to DMSO control (fraction); higher = less gametocyte killing). Conditions: 2.5 µM, library set: Broad Institute DOS, incubation time: 72 h.
Description: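 Broad DOS informer set and blood-stage-active DOS compounds screened in duplicate at 2.5 µM against P. falciparum NF54 stage V gametocytes with the serum-free one-step SaLSSA (1536-well): 72 h at 37 °C under low oxygen, then saponin lysis and MitoTracker Red CMXRos staining, with high-content imaging. Viability index = viable-object count divided by the plate mean of DMSO wells (0 = killed, about 1 = inactive).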
C[C@@H]1CN([C@@H](C)CO)C(=O)CCCn2cc(nn2)CO[C@@H]1CN(C)C(=O)Nc1ccc2c(c1)OCO2 gave a viability index of 1.05 ± 0.015. For CO[C@@H]1CC[C@@H]2CCOc3c(C#N)cccc3C(=O)N(C)C[C@@H](c3ccccc3)CC(=O)N(C)C[C@@H]1O2, the viability index was 0.988 ± 0.12. Work on O=C(C[C@@H]1CC[C@@H]2[C@H](COC[C@@H](O)CN2Cc2cc(F)ccc2F)O1)NCc1ccc(Oc2ccccc2)cc1 yielded a viability index of 0.979 ± 0.035. O=C(C1CCC1)N1CC(=O)N2[C@H](C1)[C@@H](c1ccc(Br)cc1)[C@@H]2CO showed a viability index of 1.064 ± 0.0019. With CCc1sc(N2[C@H](C#N)[C@H](c3ccccc3-c3cccc(F)c3)[C@H]2CO)nc1C the viability index was 1.1 ± 0.11. CNC[C@@H]1OCc2cnnn2CCCC(=O)N([C@@H](C)CO)C[C@H]1C was tested, and the viability index was 1.04 ± 0.019. Work on COCC#Cc1ccc([C@@H]2[C@H]3CN(Cc4cccnc4)CCCCN3[C@H]2CO)cc1 yielded a viability index of 1.03 ± 0.069. Compound O=C(C[C@@H]1C[C@H]2c3cc(NC(=O)c4ccc5c(c4)OCO5)ccc3O[C@H]2[C@H](CO)O1)NCCN1CCCCC1 has a viability index of 1.08 ± 0.064. In the case of O=C(NCCCN1CCOCC1)[C@@H]1[C@@H](CO)[C@@H]2Cn3c(cccc3=O)[C@H]1N2C(=O)NC1CCCC1, the viability index is reported as 1.01 ± 0.025. In the case of CCC(=O)N1C[C@@H](C)[C@H](OC)CN(C)C(=O)c2cc(NC(=O)Nc3ccc(Cl)cc3)ccc2OC[C@H]1C, the viability index is reported as 1.06 ± 0.02. For Cc1noc(C)c1NC(=O)Nc1ccc2c(c1)C(=O)N([C@@H](C)CO)C[C@H](C)[C@@H](CN(C)S(=O)(=O)c1cccs1)OCCCC[C@@H](C)O2, the viability index was 1.07 ± 0.055. Cc1ccccc1-c1ccc2c(c1)O[C@@H](CN(C)C(=O)Nc1ccc(C(F)(F)F)cc1)[C@H](C)CN([C@@H](C)CO)S2(=O)=O showed a viability index of 1.09 ± 0.078. CN1[C@@H](CO)[C@@H]2c3ccccc3N(C(=O)Nc3cc(F)ccc3F)C[C@@H]21 showed a viability index of 1.04 ± 0.091. Work on CS(=O)(=O)N1CC(=O)N2[C@H](C1)[C@@H](c1ccc(C#CCC3CCCC3)cc1)[C@@H]2CO yielded a viability index of 0.98 ± 0.14. Work on O=S(=O)(c1cccc(F)c1)N1CC[C@@H]2[C@H](CO)Nc3ccc(Br)cc3[C@@H]21 yielded a viability index of 1.09 ± 0.023. CCS(=O)(=O)N1Cc2cc(C(=O)NCCOC)nc(-c3cccc(-c4ccncc4)c3)c2[C@@H]1CCO was tested, and the viability index was 1 ± 0.031. Compound C[C@@H]1CCCCO[C@H](CN(C)CC2CCCCC2)[C@H](C)CN([C@@H](C)CO)C(=O)c2cc(NC(=O)Nc3ccc(C(F)(F)F)cc3)ccc2O1 has a viability index of 0.935 ± 0.038. O=C(NC1CCC1)[C@@H]1[C@@H](CO)[C@@H]2Cn3c(ccc(-c4ccncc4)c3=O)[C@H]1N2Cc1cocn1 was tested, and the viability index was 1.04 ± 0.083. CN(C)C(=O)c1ccc(-c2ccc3c(c2)[C@@H]2[C@@H](CCN2C(=O)C2CCCC2)[C@H](CO)N3C)cc1 was tested, and the viability index was 0.945 ± 0.058. CNC[C@@H]1OCc2cnnn2CCCC(=O)N([C@H](C)CO)C[C@H]1C was tested, and the viability index was 1.0046 ± 0.00089. With CNC[C@@H]1OCCCC[C@H](C)Oc2ccc(NS(=O)(=O)c3ccc(F)cc3)cc2C(=O)N([C@@H](C)CO)C[C@@H]1C the viability index was 1.12 ± 0.061. With N#C[C@H]1[C@@H](c2ccccc2C2=CCCCC2)[C@H](CO)N1C(=O)c1ccccn1 the viability index was 1.08 ± 0.13. Work on C[C@@H]1CC(=O)N[C@H](c2ccccc2)C/C=C\C[C@H](c2ccccc2)NC1=O yielded a viability index of 0.936 ± 0.041. Compound COc1ccc(C(=O)N2C[C@@H]3[C@H](c4ccccc42)[C@H](CO)N3C(=O)NC(C)C)cc1 has a viability index of 1.02 ± 0.027. COc1cccc(-c2ccc3c(c2)O[C@@H](CN(C)Cc2cccnc2)[C@H](C)CN([C@H](C)CO)S3(=O)=O)c1 was tested, and the viability index was 1.02 ± 0.013. Work on CCC(=O)N1C[C@@H](O)COC[C@H]2O[C@H](CC(=O)NCc3ccc(Oc4ccccc4)cc3)CC[C@@H]21 yielded a viability index of 0.987 ± 0.031. In the case of O=C(C[C@@H]1CC[C@@H](NC(=O)CN2CCOCC2)[C@@H](CO)O1)NC1CCC1, the viability index is reported as 1.09 ± 0.067. O=C(C[C@@H]1C[C@@H]2c3cc(NC(=O)C4CCOCC4)ccc3O[C@@H]2[C@H](CO)O1)NCCN1CCCCC1 showed a viability index of 0.989 ± 0.056. Compound CN(C)CC(=O)N1[C@@H](C#N)[C@@H](c2ccc(-c3cccc(C(=O)N(C)C)c3)cc2)[C@@H]1CO has a viability index of 1.07 ± 0.023. With Cc1noc(C)c1NC(=O)Nc1cccc2c1O[C@@H](CN(C)Cc1ccc(C(=O)Nc3ccccc3N)cc1)[C@@H](C)CN([C@H](C)CO)C2=O the viability index was 0.99 ± 0.16. Work on COc1ccc2c3c([C@@H](CO)N(C[C@]33CN(Cc4ccccc4F)C3)C(=O)Nc3ccc(F)cc3)n(C)c2c1 yielded a viability index of 0.791 ± 0.066. Work on CO[C@H](CN(C)Cc1ccc(-c2ccccn2)cc1)[C@H](C)CN(C(=O)Nc1ccc(F)cc1)[C@@H](C)CO yielded a viability index of 1.12 ± 0.084. CO[C@H]1CN(C)C(=O)c2ccc(NS(C)(=O)=O)cc2OC[C@H](C)N(CC2CC2)C[C@@H]1C showed a viability index of 1.03 ± 0.087. COc1cccc(S(=O)(=O)N(C)C[C@@H]2OCc3ccccc3-c3c(n(C)c4ccccc34)C(=O)N([C@@H](C)CO)C[C@H]2C)c1 gave a viability index of 0.977 ± 0.016. CO[C@@H]1CC[C@H]2CCN(C)C(=O)[C@H](C)CN(C)C(=O)c3cc(C#N)ccc3OC[C@H]1O2 gave a viability index of 1.1 ± 0.08. COCC(=O)NC[C@@H]1[C@@H](c2ccccc2)[C@H](CO)N1C(=O)c1ccccc1 showed a viability index of 0.9794 ± 0.0038. For Cc1noc(C)c1NC(=O)Nc1ccc2c(c1)CC(=O)N([C@@H](C)CO)C[C@H](C)[C@@H](CN(C)Cc1ccc(C(F)(F)F)cc1)O2, the viability index was 0.967 ± 0.12. For COc1cccc(NC(=O)N2CC3(C2)[C@@H](c2ccccc2)[C@@H](CO)N3C(C)=O)c1, the viability index was 1.1 ± 0.12. Work on CN(C)CC(=O)N1[C@H](C#N)[C@H](c2ccc(-c3cccc(C(=O)N(C)C)c3)cc2)[C@@H]1CO yielded a viability index of 1.133 ± 0.0056. In the case of COc1ccccc1-c1cn(CC[C@H]2CC[C@H](NC(=O)C3CCCCC3)[C@@H](CO)O2)nn1, the viability index is reported as 0.997 ± 0.11. With Cc1noc(C)c1NC(=O)N1C[C@H](O)COC[C@@H]2O[C@H](CC(=O)NCC3CC3)CC[C@H]21 the viability index was 1.06 ± 0.093. For CCCNC(=O)N1[C@@H](C#N)[C@H](c2ccc(C#Cc3cccc(F)c3)cc2)[C@@H]1CO, the viability index was 1.05 ± 0.073. N#Cc1cccc(-c2ccc([C@H]3[C@@H]4CN(C(=O)c5ccc6c(c5)OCO6)C[C@H]3N4)cc2)c1 gave a viability index of 1.09 ± 0.072. Work on O=C(Cc1ccccn1)N1[C@H](CO)[C@@H]2c3ccccc3NC[C@@H]21 yielded a viability index of 1 ± 0.038. For COc1ccc(S(=O)(=O)Nc2ccc3c(c2)C(=O)N([C@H](C)CO)C[C@H](C)[C@H](CN(C)Cc2ccc(C(F)(F)F)cc2)OCCCC[C@H](C)O3)cc1, the viability index was 0.929 ± 0.16. In the case of CCCC(=O)Nc1ccc2c(c1)OC[C@H](C)N(CC1CCOCC1)C[C@H](C)[C@@H](OC)CN(C)C2=O, the viability index is reported as 1.07 ± 0.012. With C[C@@H]1CN([C@H](C)CO)C(=O)c2cc(NC(=O)Cc3ccccc3)ccc2O[C@@H](C)CCCCO[C@H]1CN(C)Cc1ccncc1 the viability index was 1.112 ± 0.011. COc1ccc(C(=O)Nc2ccc3c(c2)C(=O)N(C)[C@H]2CC[C@H](CC(=O)NCC4CC4)O[C@@H]2CO3)cc1 showed a viability index of 0.987 ± 0.052. Compound C[C@@H]1CCCCO[C@@H](CN(C)C(=O)Nc2ccc3c(c2)OCO3)[C@H](C)CN([C@H](C)CO)C(=O)c2cc(NS(=O)(=O)c3ccc(F)cc3)ccc2O1 has a viability index of 1.1 ± 0.13. C[C@H](CO)N1C[C@H](C)[C@@H](CN(C)Cc2ccc(C(F)(F)F)cc2)OCCCC[C@H](C)Oc2ccc(NC(=O)Nc3cccc4ccccc34)cc2C1=O showed a viability index of 1.117 ± 0.0064. Work on CC(C)[C@H]1COCn2nncc2CC[C@H](C)C(=O)N1 yielded a viability index of 1.09 ± 0.028. In the case of CCCN1C[C@H](C)[C@@H](OC)CN(C)C(=O)c2cc(NC(=O)C3CCC3)ccc2OC[C@H]1C, the viability index is reported as 1.066 ± 0.0069. CO[C@H]1CN(C)C(=O)c2ccc(NC(=O)NC(C)C)cc2OC[C@H](C)N(Cc2ccc(-c3ccccn3)cc2)C[C@@H]1C showed a viability index of 1.06 ± 0.057. Compound N#C[C@H]1N[C@H](CO)[C@@H]1c1ccc(-c2cccc(F)c2)cc1 has a viability index of 1.07 ± 0.051. COc1ccc(NC(=O)N(C)C[C@H]2Oc3ccc(NC(=O)Nc4cccc5ccccc45)cc3CC(=O)N([C@H](C)CO)C[C@@H]2C)cc1 gave a viability index of 0.968 ± 0.027. C[C@H]1CN([C@@H](C)CO)C(=O)c2cccc(NC(=O)Nc3ccc4c(c3)OCO4)c2O[C@H]1CN(C)S(C)(=O)=O gave a viability index of 0.999 ± 0.083. Work on COc1cccc(-c2ccc([C@@H]3[C@H](CO)N4C(=O)CN(C(=O)c5cccnc5)C[C@@H]34)cc2)c1 yielded a viability index of 1.08 ± 0.073. Compound CCS(=O)(=O)N1CC[C@@]2(CC1)CN([C@H](CO)c1c2c2ccc(OC)cc2n1C)C(=O)c1cccc(F)c1 has a viability index of 0.9881 ± 0.0058. With CN1CCCCN2[C@H](C1)[C@@H](c1ccc(-c3ccc(F)cc3)cc1)[C@@H]2CO the viability index was 0.961 ± 0.016. COc1cccc(C(=O)Nc2ccc3c(c2)C(=O)N(C)[C@@H]2CC[C@@H](CC(=O)NCc4ccc(F)cc4)O[C@H]2CO3)c1 was tested, and the viability index was 1.17 ± 0.067. In the case of CC(C)NC(=O)N1[C@H](CNC(=O)CN(C)C)[C@H](c2ccccc2)[C@@H]1CO, the viability index is reported as 0.932 ± 0.075. For CCC(=O)N1C[C@H](C)[C@H](OC)CN(C)C(=O)c2cc(NC(=O)Nc3ccc(Cl)cc3)ccc2OC[C@@H]1C, the viability index was 1.05 ± 0.012. For CCCC#Cc1cnc2c(c1)C(=O)N([C@@H](C)CO)C[C@H](C)[C@@H](CN(C)C(=O)Nc1cc(F)ccc1F)O2, the viability index was 1.15 ± 0.088. With CN1c2ccc(-c3ccc(F)cc3)cc2[C@@H]2[C@@H](CCN2C(=O)Cc2cccnc2)[C@@H]1CO the viability index was 1.09 ± 0.061. Compound C[C@H]1CN([C@@H](C)CO)C(=O)Cc2cc(NS(=O)(=O)c3cn(C)cn3)ccc2O[C@@H]1CN(C)Cc1ccc2c(c1)OCO2 has a viability index of 1.08 ± 0.025. CCCC(=O)Nc1ccc2c(c1)OC[C@H](C)NC[C@H](C)[C@H](OC)CN(C)C2=O gave a viability index of 1.04 ± 0.032. COc1ccccc1S(=O)(=O)N[C@@H]1C=C[C@H](CC(=O)N2CCOCC2)O[C@H]1CO gave a viability index of 1.12 ± 0.097. Compound CN1C(=O)c2cc(NC(=O)Cc3cccs3)ccc2OC[C@@H]2O[C@@H](CC(=O)NCCc3ccncc3)CC[C@H]21 has a viability index of 1.06 ± 0.017. COc1ccc(S(=O)(=O)Nc2ccc3c(c2)CC(=O)N([C@H](C)CO)C[C@H](C)[C@H](CN(C)C(=O)Nc2c(C)noc2C)O3)cc1 was tested, and the viability index was 1.01 ± 0.063.
